Measurements reported in PubChem BioAssay (NCI).
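Protocol summary: plate cells (96-well), add compound at 5 concentrations, incubate 48 h, interpolate endpoints linearly. Abbreviation: GI50, concentration required for 50% inhibition of growth. The concentration for full growth arrest is given as TGI.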

System: NCI-H322M lung
Assay: growth of human tumour cells (NCI), 48 h

Work on `CC(=O)OC[C@@]12Oc3c(cccc3-c3ccc(O)c4c3O[C@]3(COC(C)=O)C(=C4O)C(=O)C[C@H](C)[C@@H]3OC(C)=O)C(O)=C1C(=O)C[C@H](C)[C@@H]2OC(C)=O` yielded a GI50 of 20.1 µM and a TGI of over 100 µM.

`CCOC(=O)c1c(NC(=O)c2ccccc2C(F)(F)F)sc2c1CCC(=O)C2` gave a GI50 of 4.12 µM and a TGI of over 100 µM.
